Measured values reported in PubChem BioAssay AID1956 (SRMLSC, 2009).
The other results are listed elsewhere or left out. Shown are side measurements of this screen, not its main read-out; they come without a call.

Test: compounds boosting herpes simplex virus growth – fold increase, host cell viability (AID 1956); also: tested in PC3 cells
Conditions: HSV replication augmentation in cells; fold increase: measured here: primary screen fold increase 10 uM, at 10 µM, stronger effect = higher value; viability: measured here: host cell viability series, at 25 µM, stronger effect = lower value

Compound | fold increase | viability
CN(C)c1ccc(C(c2ccc(N(C)C)cc2)c2ccc([N+](=O)[O-])cc2)cc1 | 1.35 | 88.1%
C(=N\n1cnnc1)/c1cccn1-c1ccccc1 | 1.41 | 98.5%
Cn1c(=O)oc2cc(S(=O)(=O)N3CCN(c4ccc(F)cc4)CC3)ccc21 | 1.48 | 98%
CS(=O)(=O)N(CC(=O)Nc1ccccc1-c1ccccc1)c1ccc(F)cc1 | 1.51 | 97.3%
N#C/C(=C/c1ccc(-c2ccc(S(N)(=O)=O)cc2)o1)c1nc2ccccc2s1 | 8.07 | 69.6%
Nc1ccc(C(=O)OCC(=O)NC2CCCc3ccccc32)cc1[N+](=O)[O-] (stereo unspecified) | 1.17 | 
Cc1c(C(=O)O)cccc1-n1c(C)cc(/C=N/Nc2ccc([N+](=O)[O-])cn2)c1C | 1.34 | 95.6%
CCCCc1ccc(/C=C2\C(=O)c3ccccc3C(O)=C2C(=O)OCC)cc1 | 2.31 | 89.7%
Cn1cccc1Cc1nnc(SCC(=O)N2CCOCC2)n1CCc1ccccc1 | 1.37 | 95.1%
O=C(O)c1cc2c(ccc3ccccc32)oc1=O | 1.33 | 106%
C1=C(c2ccc(-c3ccccc3)cc2)Nc2ncnn2C1c1ccco1 (stereo unspecified) | 5.35 | 
Nc1cc2nc3ccccc3oc-2cc1=O | 1.91 | 80.2%
CN(c1ncc(C(F)(F)F)cc1Cl)N1C(=O)c2cccc([N+](=O)[O-])c2C1=O | 1.38 | 93.8%
CC(C)c1ccc(N2C(=O)/C(=C/N(C)C)SC2=S)cc1 | 1.37 | 89.6%
COc1cc(/C=C2\SC(=S)N(Nc3ncc(C(F)(F)F)cc3Cl)C2=O)ccc1O | 4.08 | 87.1%
CC(=O)c1cc(OC(=O)c2ccncc2)ccc1OC(=O)c1ccncc1 | 1.54 | 98.6%
O=[n+]1c2c(n([O-])c3cc(F)c(N4CCCC4)cc31)CCC2 | 1.94 | 99.2%
CC1CCN(C(=S)c2cn(Cc3ccc(F)cc3)c3ccccc23)CC1 | 1.28 | 
C=CCn1c(NC(=O)c2ccccc2Cl)c(C#N)c2nc3ccccc3nc21 | 1.45 | 89.1%
Cc1cc(O)ccc1Nc1nc2ccccc2nc1Nc1ccc(O)cc1C | 1.99 | 90.2%
Cn1c(=O)c(Nc2ccc(Cl)cc2)c2c3c(cccc31)C(=O)c1ccccc1-2 | 4.76 | 
O=C(NCC1CCCO1)c1ccc(CS(=O)(=O)c2c(Cl)cccc2Cl)o1 (stereo unspecified) | 1.37 | 92.3%
O=C1NCCCC2c3cc(O)c4ccccc4c3OC12N1CCCCC1 (stereo unspecified) | 1.25 | 16.9%
Cc1cccc(/N=C/c2c(O)cc(C)oc2=O)n1 | 2.4 | 94.7%

Compound | fold increase | viability
COC(=O)c1c(C)[nH]c(C(=O)CC#N)c1C | 1.45 | 97.2%
CCOn1c(=O)c[n+]([O-])c2ccccc21 | 2.98 | 93.5%
Cc1cc(C)n2nc(S(=O)(=O)NCCc3ccccc3)nc2n1 | 1.49 | 97.8%
O=C1CCC/C(=N/NC(=O)c2sc3ccccc3c2Cl)C1 | 2.45 | 102%
CCCCc1nnc(NC(=O)C(C)Sc2nc(C)cc(=O)[nH]2)s1 (stereo unspecified) | 1.32 | 
CCN(CC)c1ccc(/C=C(/C#N)C(=O)NCc2ccccc2)o1 | 6.13 | 92.1%
CC1=CC(C)(C)Nc2ccc(OC(=O)CN3C(=O)C4CCCCC4C3=O)cc21 (stereo unspecified) | 1.66 | 52.5%
CCOC(=O)/C(C#N)=C/C=C1\C=Cc2ccccc2N1CC | 1.73 | 96.8%
Cc1cc(C(=O)COc2cccc3cccnc23)c(C)n1C | 1.35 | 90.5%
CN1CCN(CC(=O)N2c3ccc(S(=O)(=O)NCCNC(=O)OC(C)(C)C)cc3C(=O)Nc3cccnc32)CC1 | 1.42 | 93.5%
Cc1ccc(/C=C2/NC(=O)N(Cc3ccccc3F)C2=O)s1 | 1.43 | 84%
COc1ccc(OCC(=O)Nc2cc(-c3nn4c(C)nnc4s3)ccc2C)cc1 | 1.5 | 104%
Cn1c(CN2CCOCC2)nnc1SCC(=O)Nc1ccc2c(c1)OCCO2 | 1.33 | 94.8%
COCCCNC(=O)/C=C/c1ccc(Cl)cc1 | 1.5 | 106%
CC1(C)Cc2c(c(-c3ccco3)[nH]c(=O)c2C#N)CS1 | 1.48 | 96.4%
Cc1ccccc1C(=O)NNc1ccc([N+](=O)[O-])cc1 | 1.35 | 97.4%
CCn1cc(C(=O)O)c(=O)c2cnc(N3CCN(C(=S)NC(=O)c4ccc(Br)cc4)CC3)nc21 | 1.44 | 97.3%
N#CC1=C(N)C(C#N)(C#N)[C@H](c2cccnc2)[C@H]2CN(C(=O)OCc3ccccc3)CC=C12 | 1.4 | 88.2%
CCOC(=O)c1c(NC(=O)C2COc3ccccc3O2)sc2c1CCN(Cc1ccccc1)C2 (stereo unspecified) | 1.33 | 75.4%
C=CCn1c(=S)[nH]c2ccccc2c1=O | 1.13 | 
O=C(N/N=C/c1cc(Br)c(Br)o1)c1cccnc1 | 1.4 | 90.8%
O=C1N/C(=N\S(=O)(=O)Cc2ccccc2)S/C1=C/c1cc([N+](=O)[O-])ccc1O | 2.59 | 93.5%
CCN1C(=O)/C(=C/C=C2\N(CC)c3cc(S(=O)(=O)N(C)C)ccc3N2c2ccccc2)SC1=S | 3.25 | 74.1%
Cc1ccc(S(=O)(=O)N2CCOCC2)cc1C(=O)Nc1ccc(C(N)=O)cc1 | 1.37 | 100%

Compound | fold increase | viability
N#C/C(=C(/O)CSc1ccccn1)c1nc2ccccc2s1 | 1.4 | 101%
COc1ccc(-n2c(SCC(=O)O)nc3sc4c(c3c2=O)CCC4)cc1 | 1.32 | 
COc1ccc2[nH]c(C)c(CCN(Cc3cccs3)C(=S)Nc3ccccc3OC)c2c1 | 1.41 | 104%
CC(=O)Nc1ccc(S(=O)(=O)Nc2cc(-c3ccccc3)nn2C)cc1 | 1.33 | 95.5%
COCCCn1c(O)c(/C=C2\N=C(C#N)C(=Nc3ccc(C)cc3)O2)sc1=S | 1.48 | 
CC(=Nc1ccccc1O)c1sc2ccccc2c1O | 3.79 | 98.5%
COc1ccc(Nc2ccc(S(=O)(=O)N3CCCCC3)cc2[N+](=O)[O-])cc1Cl | 1.4 | 83.2%
O=C(CCc1ccccc1)NCCSCc1c(F)cccc1Cl | 1.37 | 103%
O=C(O)Cc1sc(N/N=C\c2ccncc2)nc1-c1ccccc1 | 1.88 | 95.8%
Cc1ccc(SCc2cn3c(C)cc(C)nc3n2)cc1 | 1.4 | 95%
O=C1CCCc2c1nc(-c1ccc(F)cc1)n2O | 1.37 | 99.7%
COc1cc(/C=C2/SC(=S)N(c3c(C)n(C)n(-c4ccccc4)c3=O)C2=O)ccc1O | 2.2 | 100%
CN1C2CCC1/C(=C/c1cccn1C)C(=O)/C2=C\c1cccn1C | 5.95 | 
N#C/C(=C/c1ccncc1)c1nc2ccccc2s1 | 4.46 | 104%
Cc1[nH]c2ccccc2c1Cc1nnc(SCc2ccccc2)o1 | 1.35 | 97.4%
COc1ccc2nc(Nc3sc4c(c3C(N)=O)CCCC4)sc2c1 | 1.55 | 99.2%
Nc1c(C(=O)c2ccccc2)sc2nsc(SCCN3CCCC3)c12 | 1.78 | 47.3%
CCOCCCn1c(C)nc2c(c1=O)c1nc3ccccc3nc1n2-c1ccc(C)cc1 | 1.42 | 98.1%
CCN1C(=O)CS/C1=C(\C#N)S(=O)(=O)c1ccccc1 | 1.35 | 98.1%
CN(C)c1ccc(/C=C2\SC(=S)N(Nc3ncc(C(F)(F)F)cc3Cl)C2=O)cc1 | 1.92 | 98.5%
O=C(COc1ccccc1)N1CCN(S(=O)(=O)c2ccc(Cl)cc2)CC1 | 1.42 | 97.6%
Cc1ccc(N2C(=O)c3cccc4c(N5CCN(C)CC5)ccc(c34)C2=O)c2cccnc12 | 1.8 | 75.3%
O=C(C1=NN(c2ccccc2)C2C(=O)N(c3ccccc3)C(=O)C12)c1ccccc1 (stereo unspecified) | 3.38 | 
Cc1c(Nc2c3c(c(C#N)c4nc5ccccc5n24)CCC3)c(=O)n(-c2ccccc2)n1C | 1.59 | 

Compound | fold increase | viability
COc1ccc(C(=O)/C=C/Nc2cccc(O)c2)cc1 | 2.03 | 99.5%
O=C1c2ccccc2-c2onc3ccc(N4CCCC4)c1c23 | 3.64 | 91.6%
CC(=O)Nc1ccc(S(=O)(=O)Nc2nc3ccccc3nc2Nc2ccc3ccccc3c2)cc1 | 1.45 | 
CC(C)OC(=O)c1c2c(n3ccccc13)C(=O)c1ccccc1C2=O | 3.74 | 
O=C(Nc1ccccc1)C1CC(=O)n2ncnc2N1 (stereo unspecified) | 1.39 | 103%
S=c1[nH]nc(-c2ccc(Br)cc2)n1-c1ccc2c(c1)OCCO2 | 1.32 | 
CCOC(=O)c1c(C)oc2c1c(C=NCCO)c(O)c1ccccc12 | 1.34 | 93.1%
Cc1ccc(C(=O)N/C(=C\c2ccc(-c3ccc([N+](=O)[O-])cc3)o2)C(=O)NC2CCS(=O)(=O)C2)cc1 (stereo unspecified) | 1.53 | 92.1%
Cc1cc(=O)[nH]c(-n2nc(C)cc2C)n1 | 1.06 | 
CCCN(CCC)CC(O)Cn1cc(/C=C/C(=O)c2cccs2)c2ccccc21 (stereo unspecified) | 1.37 | 67.5%
CC(C)c1ccc(NC(=O)CNS(=O)(=O)c2ccc(F)cc2)cc1 | 1.38 | 93.3%
COC(=O)c1sc2nc(CSc3ccc(Br)cc3)[nH]c(=O)c2c1C | 1.66 | 97.8%
NCCc1nc(-c2ccccc2)cs1 | 1.82 | 92.1%
O=C(N/N=C/c1ccc[nH]1)c1ccccc1[N+](=O)[O-] | 1.34 | 95%
Oc1[nH]c(=S)sc1/C=C1\C(c2ccccc2)=Nc2ccccc21 | 1.78 | 83.8%
CC(=O)[C@]1(O)Cc2c(O)c3c(c(O)c2[C@@H](O[C@H]2C[C@H](N)[C@H](O)[C@H](C)O2)C1)C(=O)c1ccccc1C3=O | 5.37 | 13.8%
COC(=O)C1=C(C)N(c2ccc(F)cc2)/C(=C/c2ccc(O)cc2)C1=O | 1.98 | 96.3%
Nc1ccccc1Nc1cc(-c2ccccc2)nn1-c1cccc(Cl)c1 | 1.33 | 90.6%
Cc1[nH]c(=O)[nH]c(=O)c1NC(=O)c1sc2nc3c(C)cccc3cc2c1N | 1.33 | 100%
CCCCCCc1cc2cc(-c3nnc(-c4ccccc4OC)o3)c(=O)oc2cc1O | 3.26 | 43.7%
O=C(c1ccc(Cl)cc1)[C@@H]1[C@@H]2C(=O)N(c3ccc(Cl)cc3)C(=O)[C@@H]2C2c3ccccc3C=NN21 (stereo partly specified) | 1.4 | 101%
